The RNAGym collection of RNA variant scans (doi:10.1093/nar/gkz1192)
The source gives no read counts; variants with many changes may rest on few reads.

B1: CPEB3 Ribozyme (parent)
chain: UAACAGGGGGCCACAGCAGAAGCGUUCACGUCGCAGCCCCUGUCAGAUUCUGGUGAAUCUGCGAAUUCUGCUGUAUAUCUC

Variants of: B1
Assay: self-cleavage, relative activity (ratio to wild type); higher = more cleavage; in vitro, sequencing
Outline: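 Libraries of CPEB3 self-cleaving ribozyme mutants came from rounds of error-prone PCR and carried barcodes, which DNA sequencing matched to variants. In vitro transcription used T7 RNA polymerase at 37°C for 5 hours, with a further 15 min in DNase I before EDTA stopped the reaction; the ribozymes cleaved during both steps. The RNA was reverse transcribed with template switching and sequenced on Illumina. Relative activity is the cleaved/total read fraction of a variant divided by that of the unmutated ribozyme, averaged over three batches with at least 5 reads.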

| Variant | self-cleavage |
| --- | --- |
| GAACAGAGGGCCUCAGCAGAAGCAUCCACGUCGCAGCCCCUGUCAGAUUCUGGUGAAUCUGCGAACUCUGCUGUAUAUCUC [U1G G7A A13U G24A U26C U66C] | 0.1 |
| GAAAAGGGGGCCACAGCAGAAGCGUUCACGUCGCAGCCCCCGUCAGGUUCUGGAGAAUCAGCAAAUUCUGCUGUAUAUCUC [U1G C4A U41C A47G U54A U60A G63A] | 0.48 |
| GAACAGGGGGCCUCAGCAGAAGCGUCCACGUCGCAGCCCCUGUCAGAUUCUGGUGAAUCUGCGAACUCUGCUGUAAAUCUC [U1G A13U U26C U66C U76A] | 0.13 |
| GAACAGGGGGCCACAGCAGGAGCGUUCACGUCGCAGCCCCUGUCAGACUCUGGUGAAUCUGCGAACUCUGCUGUAUAUCUC [U1G A20G U48C U66C] | 0.22 |
| CAACAGGGGGCCACAGCAGAAGCGUUCACGUCGCAGCCCCUGUCAGAUUCUGGAGUAUCUGCGAAUUCUGCUGUAUAUCUC [U1C U54A A56U] | 0.66 |
| CAACAGGGGGCCACAGCAGAAGCGUUCACGUCGCAGCCCCUGACAGAUUCCGGUGAAUCUGCGAAUUCUGCUGUAUAUCUC [U1C U43A U51C] | 1.15 |
| CAACAGGGGGCCACAGCAGAAGCGUUCACGUCGCAGCCCCUGUCAGAUCCUGGUGAAUCUGCGAAUUCUGCUGUAUAUCCC [U1C U49C U80C] | 0.5 |
| GAACAGGGGGCCUCAGCAGAAGCGCUCACGUCGCAGCCCCUGUCAGAUUCUGGCGAAUCUACGAAUUCUGCUGUAUAUCUC [U1G A13U U25C U54C G61A] | 0.05 |
| CAACAGGGGGCCACAGCAGAAGCGUUCACGUCGCAGCCCCUGACAGAUUCUGGUGAAUCUGCGAGUUCUGCUGUAUAUCUC [U1C U43A A65G] | 0.55 |
| GAACAGGGGGCCACAGCUGAAGCGUUCACGUCGCAGCCCCUGUCGGAUUUUGGUGAAUCUGCGAAUUCUGCUGUAUAUCUC [U1G A18U A45G C50U] | 0.4 |
| CAACAGGGGGCCACAGCAGAAGCGUUCACGUCGCAGCCCCUGCCAGGUUCUGGUGAAUCUGCGAAUUCUGCUGUAUGUCUC [U1C U43C A47G A77G] | 0.33 |
| UCGCAGGGGGCCACAGCAGAAGUGUUCACGCCGCAGCCCCUGUCAGAUUCUGGAGAAUCUGCGAAUUCUGCUGUAUAUCUC [A2C A3G C23U U31C U54A] | 0.09 |
| UCACGGGGGGCCACAGCAGAAGCGCUCUCGUCGCAGCCCCUGUCAGAUUCUGGUGAAUCUGUGAAUUCUGCUGUAUAUCUC [A2C A5G U25C A28U C62U] | 0.43 |
| GAACAGGGGGCCACGGCAGAAGCGUACACGUCGCAGCCCCUGUCAGAUUCUGGUGAAUCUGCGAAUUCAGCUGUAUAUCUC [U1G A15G U26A U69A] | 0.23 |
| GAACAGGGGGUCACAGCAGAAGCGCUCACGUCGCAGCCCCUGUCAGAUUCUGGUGAAUCUGCGGAUUCUGCUGUAUACCUC [U1G C11U U25C A64G U78C] | 0.04 |
| GAACAGGGGGCCACAGCUGAAGCGUUCACGUCGCAUCCCCUGUCAGAUUCCGGUGAAUCUGCGAAUUCUGCUGUAUAUCUC [U1G A18U G36U U51C] | 0.05 |
| GAACAGGGGGCCACAGCAGAAGCGUCCUCGCCGCAGCCCCUGCCAGAUUCUGGUGAGUCUGCGAAUUUUGCUGUAUAUCUC [U1G U26C A28U U31C U43C A57G C68U] | 0.29 |

| Variant | self-cleavage |
| --- | --- |
| CAACAGGGGGCCACAGCAGAAGCGUUCACGUCGCAGCCCCUGACAGAUUCUGGUGAAUCUGCGUAUUCUGCUGUAUAUCUC [U1C U43A A64U] | 0.32 |
| CAACAGGGGGCCACAGCAGAAGCGUUCACGUCGCAGCCCCUGACAGAUUCUGGUGGAUCUGCGAAUUCUGCUGUAUAUCUC [U1C U43A A56G] | 0.3 |
| GAACAGGGGGCCACAGCGGAAGCGUUCACGUCGCGGCCCCUGUCAGAUUCUGGCGAAUCUGCGAAUUUUGCUGUAUAUCUC [U1G A18G A35G U54C C68U] | 0.47 |
| GGACAGGGGGCCACAGCAGAAGCGUUCACGUCGCAGCCCCUGUCAGAUUCUGGGGAACCUGCGAAUUCUGCUGUAUACCUC [U1G A2G U54G U58C U78C] | 0.19 |
| CAACAGGGGGCCACAGCAGAAGCGUUCACGUCGCAGCCCCUGUCAGAUACUGCUGAAUCUGCGAAUUCUGCUUUUUAUCUC [U1C U49A G53C G73U A75U] | 1.2 |
| GAACAGGGGGCCACAGCAGAAGCGUUCACGUCGCGGCCCCUGUCAGAUUCUGGUGGACCUGCGUAUUCUGCUGCAUAUCUC [U1G A35G A56G U58C A64U U74C] | 0.51 |
| GAACGGGGGGCCACAGCAGAAGCGUUCACGUCGCAGCCCCUGUCAGAUUCUGGUGAAUCUGCGGAUUCUGCUGUAUAUCUC [U1G A5G A64G] | 0.45 |
| GAACAGGGAGCCACAGCAGAAGCGUUCACGUCACAGCCCCUGUCAGAUUCUGGUGGAUCUGCGAAUUCUGCAGUAUACCUC [U1G G9A G33A A56G U72A U78C] | 0.04 |
| GAACAGGGGCCCACAGCAGGAGCGUUCACGUCGCAGCCCCUGUCAGAUUCUGGUGAGUCUGCGAAUUCUGCUGUAUAUCCC [U1G G10C A20G A57G U80C] | 0.48 |
| UCACUGGGGGCCACAGCAGAAGCGUUCACGUCGCGGCCCCUGUCAGAUUCUGGUGAAUCUGCGAUUUCUGCCGCAUAUCUC [A2C A5U A35G A65U U72C U74C] | 0.63 |
| GAACAGGGGGCCACAGCAGAAGCGUUCACAUCGCAGCCCCUGUCAGAUUCUGGUGGGUCUGCGAAUUCUGCUGUAUAUCUC [U1G G30A A56G A57G] | 0.19 |
| CAACAGGGGGCCACAGCAGAAGCGUUCACGUCGCAGCCCCUGUCAGAUUCAGGUGAAUCUGCGAGUGCUGCUGUAUAUCUC [U1C U51A A65G U67G] | 0.42 |
| CAACAGGGGGCCACAGCAGAAGCGUUCACGUCGCAGCCCCCGUCAGAUUCCGGCGAAUCUGCGAAUUCUGCUGUAUAUCCC [U1C U41C U51C U54C U80C] | 1 |
| GAACAGGGGGCCACAGCUUAAGCGUUCACGUCGCAGCCCAUGUCAGAUUCUGGUGAAUCUGCGAAUUCUGCUGUAUAUCUC [U1G A18U G19U C40A] | 0.03 |
| CAACAGGGGGCCACAGCAGAAGCGUUCACGUCGCAGCCCCUGUCAGAUUCCGGUGUAUCUGCGGAUUCUGCUGUAUAUCUC [U1C U51C A56U A64G] | 0.31 |
| GAACAGGGGGCCACAGCCUAAGCGUUCACGUCGCAGCCCCUGUCAGAUUCUGGUGAAUCUGCGAAUUCUGCUGUAUAUCUC [U1G A18C G19U] | 0.08 |
| UCGCAGGGGGCCACUGCAGAAGCGUUCACGUCGCAGCCCCUGUCAGAUUCUGGUGAAUCUGCGAAUUCUGCUGUAUAUCUC [A2C A3G A15U] | 0.58 |
